# Laboratory results: PubChem BioAssay AID1347165 (National Center for Advancing Translational Sciences (NCATS), 2019)
# The campaign covered roughly 220,000 compounds. About 5,700 (2.6%) were called active. Inconclusive results, whose numbers are uncertain, are shown with a selection of clear calls. Calls come from the whole dose curve; as a rule, active = well fitted inhibition curve with a large enough effect; inconclusive = small, poorly fitted or top-dose-only effect; inactive = no such curve, though single readings can be large or run the other way. A potency beside an inconclusive call is a rough fit, not a confirmed value.
# Biological target: Lysine-specific demethylase 5B (Homo sapiens) (UniProt Q9UGL1)
# Chain of UniProt Q9UGL1 (Q9UGL1 whole entry, looked up): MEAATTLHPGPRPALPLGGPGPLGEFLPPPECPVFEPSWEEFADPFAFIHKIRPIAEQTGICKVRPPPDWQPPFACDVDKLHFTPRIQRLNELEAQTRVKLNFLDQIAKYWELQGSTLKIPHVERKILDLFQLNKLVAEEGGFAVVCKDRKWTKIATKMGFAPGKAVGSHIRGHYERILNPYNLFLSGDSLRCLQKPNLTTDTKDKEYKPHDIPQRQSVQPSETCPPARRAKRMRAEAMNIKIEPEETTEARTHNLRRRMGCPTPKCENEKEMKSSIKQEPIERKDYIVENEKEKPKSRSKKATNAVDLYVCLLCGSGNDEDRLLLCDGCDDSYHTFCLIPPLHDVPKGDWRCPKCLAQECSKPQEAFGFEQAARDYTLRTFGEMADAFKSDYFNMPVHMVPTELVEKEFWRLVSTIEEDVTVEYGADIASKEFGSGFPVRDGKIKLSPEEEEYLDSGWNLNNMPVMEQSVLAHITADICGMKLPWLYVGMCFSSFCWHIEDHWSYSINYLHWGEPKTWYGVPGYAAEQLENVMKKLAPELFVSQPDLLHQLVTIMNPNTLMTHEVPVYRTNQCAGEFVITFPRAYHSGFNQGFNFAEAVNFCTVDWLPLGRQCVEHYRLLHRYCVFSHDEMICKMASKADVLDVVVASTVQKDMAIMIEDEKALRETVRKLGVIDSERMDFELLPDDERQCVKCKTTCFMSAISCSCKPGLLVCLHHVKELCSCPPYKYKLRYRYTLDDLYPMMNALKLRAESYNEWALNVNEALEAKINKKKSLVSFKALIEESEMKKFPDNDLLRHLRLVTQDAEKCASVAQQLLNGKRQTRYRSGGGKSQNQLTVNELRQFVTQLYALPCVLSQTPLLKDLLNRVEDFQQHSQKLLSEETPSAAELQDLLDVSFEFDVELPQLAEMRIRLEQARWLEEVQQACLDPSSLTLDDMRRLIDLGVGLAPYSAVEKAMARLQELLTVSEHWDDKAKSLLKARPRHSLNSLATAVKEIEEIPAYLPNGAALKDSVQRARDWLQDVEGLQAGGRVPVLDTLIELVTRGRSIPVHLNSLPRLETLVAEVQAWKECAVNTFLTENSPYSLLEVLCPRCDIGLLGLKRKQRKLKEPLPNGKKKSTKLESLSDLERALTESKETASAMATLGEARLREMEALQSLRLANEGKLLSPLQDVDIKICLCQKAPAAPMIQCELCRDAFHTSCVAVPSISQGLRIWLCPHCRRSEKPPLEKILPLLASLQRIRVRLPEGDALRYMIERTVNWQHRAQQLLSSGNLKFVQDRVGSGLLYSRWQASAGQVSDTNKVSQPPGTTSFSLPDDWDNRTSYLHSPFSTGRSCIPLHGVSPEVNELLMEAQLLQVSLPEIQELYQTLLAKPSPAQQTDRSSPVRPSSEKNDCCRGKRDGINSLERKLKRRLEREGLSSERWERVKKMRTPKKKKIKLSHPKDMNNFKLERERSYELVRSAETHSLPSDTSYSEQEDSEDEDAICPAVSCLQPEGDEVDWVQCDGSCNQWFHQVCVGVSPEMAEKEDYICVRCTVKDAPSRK
# Assay: Primary screen for KDM5B Histone Demethylases FDH-coupled qHTS; note: nearly all actives have a fitted effect of over 70% in size
# Conditions: FDH-coupled NADH fluorescence (FDH is formaldehyde dehydrogenase); series mostly up to 57.7 µM
# How it was run: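 Inhibition is measured as reduced NADH fluorescence generation from FDH coupling to formaldehyde release. Truncated KDM5BΔAP at 200 nM final acts on H3K4me3 peptide (12.5 µM in substrate mix) in pH 7.5 HEPES buffer with Tween-20, 30 min, room temperature.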
# Potency is the fitted concentration of half-maximal effect; tags give direction and shape of the fitted curve.
row,SMILES,Potency
1,COc1ccc(C(=O)/C=C/c2ccc(-c3ccc(OC)cc3)o2)cc1,"inconclusive: 28.2 µM [inhibitor, partial curve, poor fit]"
2,Cn1ncc(CN2CCCC23CCN(c2ccc(C(F)(F)F)cn2)CC3)c1C1CC1,active: 22.4 µM
3,COC(=O)CNC(=O)c1cc(-c2ccc([S+](C)(=O)[O-])cc2)nc2c1cnn2C,"inconclusive: 79.4 µM [inhibitor, partial curve, poor fit]"
4,COC(=O)c1c(C)[nH]c(C(=O)C(C)OC(=O)c2ccc(O)cc2)c1C (stereo not drawn),inactive
5,CC1=C(C(=O)OC(C)C(C)(C)C)C(c2ccc(Cl)cc2)NC(=O)N1 (stereo not drawn),inactive
6,CN(C)c1ccc2ncc(Nc3cc(F)cc(N4CCOCC4)c3)n2n1,"inconclusive: 31.6 µM [inhibitor, single point]"
7,COc1ccc(C)cc1S(=O)(=O)Nc1ccc2c(c1)CCN2C(=O)c1cccnc1,inactive
8,CCCCOc1ccc2c(C)c(CCC)c(=O)oc2c1,"inconclusive: 3.98 µM [inhibitor, full curve, poor fit]"
9,O=C(O)c1ccc(CSC(F)F)o1,inactive
10,O=C(N[C@@H]1CN(Cc2ccc3c(c2)CCO3)C[C@H]1CO)c1cnccn1,inactive
11,CN1[C@@H](CCC(=O)N2CCN(c3ccccn3)CC2)CNC(=O)[C@@H]2[C@H]1CCN2Cc1ccc(CO)o1,active: 31.6 µM
12,COc1ccc(C2=C(C)C(=O)N(Cc3ccc(C(=O)NC(C)c4ccccc4)cc3)S2(=O)=O)cc1 (stereo not drawn),"inconclusive: 3.98 µM [inhibitor, full curve, poor fit]"
13,Cc1cc(=O)n2nc(N3CCC(C(=O)Nc4c(C)cccc4C)CC3)sc2n1,"inconclusive: 15.8 µM [inhibitor, partial curve, poor fit]"
14,Cc1cc2cccc(-c3nc(C4CCOC4)no3)c2o1 (stereo not drawn),active: 22.4 µM
15,COc1ccc(-c2cc(N3CCC(NC(=O)c4cccc(C)c4)C3)n[nH]2)cc1 (stereo not drawn),"inconclusive: 3.16 µM [inhibitor, full curve]"
16,COC(=O)c1c(NC(=O)CN2CCN(C(=O)C3CCCO3)CC2)sc2c1CCC2 (stereo not drawn),inactive
17,Cc1cc(C(=O)NC2CCCc3c2[nH]c2ccccc32)c2c(C)noc2n1 (stereo not drawn),"inconclusive: 15.8 µM [inhibitor, partial curve, poor fit]"
18,Cc1ccc(C(=O)NC2CCCN(c3cc(-c4ccc(F)cc4)[nH]n3)C2)cn1 (stereo not drawn),inactive
19,O=S(=O)([N-]c1nc2ccccc2nc1-n1cc[n+](Cc2ccccc2)c1)c1ccc(Br)cc1,"inconclusive: 28.2 µM [inhibitor, partial curve, poor fit]"
20,Cc1nc(N2CCC(NC(=O)Cc3ccc(Cl)cc3)CC2)cc(C(F)(F)F)n1,"inconclusive: 31.6 µM [inhibitor, single point]"
21,Cn1ccc(CN2CC(Oc3ccc(F)c(F)c3)C2)c1,"inconclusive: 63.1 µM [inhibitor, partial curve]"
22,CC(C)Oc1ccc(CNC(=O)c2ccc3c(c2)nc2n3CCCCC2)cc1,"inconclusive: 17.8 µM [inhibitor, partial curve, poor fit]"

row,SMILES,Potency
1,Cc1cc(C)c(S(=O)(=O)N2CCOC23CCN(C(=O)CC(C)C)CC3)c(C)c1,inactive
2,Cn1cc(CN2CCCC23CCN(c2ncccn2)CC3)c(-c2ccccc2)n1,"inconclusive: 20 µM [inhibitor, partial curve, poor fit]"
3,CCn1c(=O)c2cc(C(=O)NCCCN3CCN(c4ccc(F)cc4)CC3)sc2c2ccccc21,"inconclusive: 17.8 µM [inhibitor, partial curve, poor fit]"
4,O=C(Nc1ccc2ncnc(N3CCCCC3)c2c1)c1cc(F)cc(F)c1,"inconclusive: 28.2 µM [inhibitor, single point]"
5,Cc1nc(CN2Cc3nc(OCc4ccc(F)cc4)ccc3OCC2=O)cs1,"inconclusive: 25.1 µM [inhibitor, partial curve, poor fit]"
6,Cc1ccccc1CC(=O)N1CCC2(CC1)N=C(c1cccc(Br)c1)NO2,"inconclusive: 31.6 µM [inhibitor, partial curve, poor fit]"
7,S=C(NCc1ccccc1)N/N=C/c1ccccn1,"inconclusive: 39.8 µM [inhibitor, single point]"
8,O=C(NC1CCCC1)c1cc2c(s1)CCN(C(=O)c1ccc(F)cc1)C2,inactive
9,O=C(Nc1cccc(Br)c1)Nc1ccc2c(c1)N(C(=O)c1ccccc1)CC2,inactive
10,CCCc1ccc(S(=O)(=O)N2CCC(c3nnc(-c4cccc(C)c4)o3)CC2)cc1,"inconclusive: 7.94 µM [inhibitor, partial curve, poor fit]"
11,COc1ccc(Cl)cc1C(=O)Nc1ccc2nc(Nc3cccc(Cl)c3)cc(C)c2c1,"inconclusive: 28.2 µM [inhibitor, partial curve, poor fit]"
12,Nc1ccc2c(c1)CCC(=O)N2,"inconclusive: 11.2 µM [inhibitor, partial curve, poor fit]"
13,COc1ccc(OC)c(CNC(=O)c2ccc3nc(C(C)C)oc3c2)c1,"inconclusive: 31.6 µM [inhibitor, partial curve, poor fit]"
14,O=C(NC1CCN(c2cc(-c3ccc(F)cc3)[nH]n2)CC1)c1cccc2[nH]ccc12,active: 31.6 µM
15,C=C(Cl)COc1ccccc1C(N)=O,inactive
16,CSc1ccc(-c2cccc(CN)c2)cc1,"inconclusive: 56.2 µM [inhibitor, full curve, poor fit]"
17,Cn1c(SCC(=O)Nc2c(F)c(F)cc(F)c2F)nc2c(=O)[nH]cnc21,inactive
18,O=C(CCC1CCCC1)N1CCCC(CN2CCCC2)CC1 (stereo not drawn),"inconclusive: 17.8 µM [inhibitor, single point]"
19,CC(=O)Oc1c(-c2ccc(NC(=O)C3CC3)cc2)c(-c2ccc3c(c2)OCO3)nn1-c1cccc(C)c1,active: 35.5 µM
20,CC(C)c1ccc(C2=CC(c3cccc(Cl)c3)n3c(nc4ccccc43)N2)cc1 (stereo not drawn),"inconclusive: 17.8 µM [inhibitor, partial curve, poor fit]"
21,C[S+](=O)([O-])c1ccc(-c2nc(C(=O)N3CCN(c4ncccn4)CC3)n3ccccc23)cc1,"inconclusive: 14.1 µM [inhibitor, full curve, poor fit]"
